# In PubChem BioAssay AID1347120 (National Center for Advancing Translational Sciences (NCATS), 2019):
# Out of some 390,000 compounds screened, about 930 (0.24%) were called active. The inconclusive results got no clear call from the source; some entries with a clear call stand among them for comparison. The call rests on the fitted dose curve; in most records, active means well fitted activation curve with a large enough effect; inconclusive means small, poorly fitted or top-dose-only effect; inactive means no such curve, though single readings can be large or run the other way. Where the call is inconclusive, the potency comes from a doubtful curve fit.
# Experiment: qHTS for Suppressors of FUS Proteinopathy: Primary screen using FUS-linked yeast assay; further: nearly all actives have a fitted effect of over 55% in size;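 on growth rescue (activation): plate controls were DMSO vehicle for no effect and reference control for full effect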
# Conditions: S. cerevisiae FUS-expressing, OD600, 24 h; Potency: growth rescue; growth rescue (activation): at 76.6 µM (top of the series)
# How it was run: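 Compound concentration series was pinned onto galactose-induced FUS-expressing yeast seeded at OD 0.005. Plates sat 24hr at 30C; absorbance at 600 nm gave growth. DMSO served as background control.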
# Potency means the concentration at half of the fitted maximal effect; tags describe the fitted curve by direction and shape.
Structure (SMILES),Potency,growth rescue (activation)
COc1ccc(NC(=O)CNc2cccc(S(=O)(=O)N3CCCCCC3)c2)c([N+](=O)[O-])c1,"inconclusive: 35.5 µM [activator, single point]",
CC(=O)NCCCNC(=S)NCCCN(Cc1ccc(Cl)cc1)c1ccc(Br)cn1,"inconclusive: 50.1 µM [activator, single point]",
CC(C)c1ccc(NC(=O)COc2nnc(-c3cccs3)c(-c3cccs3)n2)cc1,"inconclusive: 35.5 µM [activator, single point]",
Cc1ccccc1C1CC(=O)Nc2ccc3ccccc3c21 (configuration not stated),,inactive: -20.2%
CCc1ccc2nc(SCC(=O)Nc3nnc(C)s3)c(C)cc2c1,"inconclusive: 1 µM [activator, full curve, poor fit]",
CCOC(=O)C1(CCOc2ccccc2)CCN(C(=O)c2ccc(-n3cccn3)cc2)CC1,"inconclusive: 35.5 µM [activator, single point]",
O=C(CSCc1ccccc1Cl)N1CCN(c2ccc(Cl)cc2)CC1,"inconclusive: 50.1 µM [activator, single point]",
COc1ccc(C(=O)N[C@@H]2CC[C@@]34CCCN3C(=O)CCC[C@H]4[C@H]2C)cc1,,inactive: -2.52%
CCCS(=O)(=O)N1CC(=O)N(c2ccc(Cl)cc2C)C(C)(C(=O)NC2CCCC2)C1 (configuration not stated),,inactive: -2.71%
C=CCn1c(SCC(=O)NCCCC(=O)OCC)nc2scc(-c3ccco3)c2c1=O,"inconclusive: 25.1 µM [activator, single point]",
CCC(=C(c1ccc(OC)cc1)c1ccc(OC)cc1)c1cn(CC(O)CN(CCO)CCO)c2ccccc12 (configuration not stated),active: 28.2 µM,
O=C1Nc2ccccc2N=C(c2ccccc2)C1N(C(=O)c1ccnc2ccccc12)c1ccccc1 (configuration not stated),"inconclusive: 6.31 µM [activator, full curve]",
Cc1ccc(S(=O)(=O)N2CCC(C(=O)Nc3ccc(N4CCOCC4)cc3)CC2)cc1C,,inactive: -12.6%
Cc1ccc(CNC(=O)c2ccc(Cn3nc(C)c(Cl)c3C)o2)cc1,"inconclusive: 50.1 µM [activator, single point]",
O=C(Nc1ccccc1)C1=C[C@@H](c2ccc(Br)cc2)C[C@@H](OCc2ccc(CO)cc2)O1,"inconclusive: 50.1 µM [activator, single point]",
CCC(=O)NC1=C(Nc2ccc(N)cc2)C(=O)c2ccccc2C1=O,"inconclusive: 25.1 µM [activator, partial curve, poor fit]",
CCn1ccc2cc(S(=O)(=O)N3CCCN(C(=O)Nc4cccc(Cl)c4)CC3)ccc21,"inconclusive: 12.6 µM [activator, partial curve, poor fit]",
